In the assay the target is T1, recombinant c-Kit (R&D Systems) (UniProt P10721 fragment).
T1 construct: c-Kit receptor tyrosine kinase, recombinant; No catalogue number printed; the discussion calls it 'recombinant soluble c-Kit'; also called surface-immobilized c-Kit; recombinant soluble c-Kit; source: bought: R&D Systems
The experiment in a line: SPR; ProteOn XPR36; c-Kit amine-coupled to a GLC chip; SCF proteins flowed in PBST at 100 µL/min, 25 °C; KD from the equilibrium-binding phase, 1:1 Langmuir model; BSA channel subtracted. To be noted: both partners purified.

T1 sequence (P10721 26-524): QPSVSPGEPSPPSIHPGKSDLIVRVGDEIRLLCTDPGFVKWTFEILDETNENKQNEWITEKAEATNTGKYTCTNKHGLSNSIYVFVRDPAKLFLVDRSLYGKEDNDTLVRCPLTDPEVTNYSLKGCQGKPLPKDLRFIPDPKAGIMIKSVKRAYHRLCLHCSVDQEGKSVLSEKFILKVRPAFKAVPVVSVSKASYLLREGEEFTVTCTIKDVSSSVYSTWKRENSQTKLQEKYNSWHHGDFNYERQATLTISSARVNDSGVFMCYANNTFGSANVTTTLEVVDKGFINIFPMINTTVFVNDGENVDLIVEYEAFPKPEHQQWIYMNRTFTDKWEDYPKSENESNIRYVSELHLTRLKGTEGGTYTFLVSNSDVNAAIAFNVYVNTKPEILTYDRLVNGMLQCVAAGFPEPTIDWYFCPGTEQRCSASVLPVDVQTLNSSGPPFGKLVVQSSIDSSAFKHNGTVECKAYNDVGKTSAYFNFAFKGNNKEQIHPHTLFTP

B1: SCFM, stem cell factor V49L F63L double mutant, soluble (ligand)
chain: not shown
notes: stem cell factor (SCF) with V49L and F63L; also called SCFM V49L F63L; SCF monomer; source: purified in non-glycosylated form (production described in the Supplementary Materials)
In the case of B1, the Kd was 146 nM.

Source of the values: publication PMC7588011, “Engineering Stem Cell Factor Ligands with Different c-Kit Agonistic Potencies” (Molecules, 2020).
